# Experimental data: the supplement of paper PMC10670038
# Several values for one entry are separate records, joined by “and”; a condition that tells them apart may be missing. Identical values can stand only once. Counter-ions that a name gives are not always drawn. ± gives the standard deviation of the averaged measurements. Whole data set: some 2,000 compounds, median “relative cell viability vs DMSO, compound + 0.2 uM CuET” near 1, cut for the lowest 2% near 0.25. The list shows a part of the results.
# Test system: TE10
# Test: relative cell viability vs DMSO, compound + 0.2 uM CuET (fraction); TE10 is an esophageal squamous carcinoma line; higher = less cytotoxic
# Conditions: 2 µM; co-treatment: CuET (bis(diethyldithiocarbamate)copper) 0.2 uM; 48 h
# Experimental: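 TE10 ESCC cells (1,000/well, 384-well plates) were treated with Selleck bioactive library compounds at 2 uM combined with 0.2 uM CuET (copper diethyldithiocarbamate) for 48 h. Viability was read by CellTiter-Glo and expressed relative to DMSO wells. Two technical replicates (A, B).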
row,SMILES,relative cell viability
1,CS(=O)(=O)c1cccc(CNc2nc(Nc3ccc4c(c3)CCC(=O)N4)ncc2C(F)(F)F)c1,0.879 ± 0.089
2,CC(C)(C)n1nc(-c2ccc(Cl)cc2)c2c(N)ncnc21,1.02 ± 0.0099
3,CC1(C)CCC(CN2CCN(c3ccc(C(=O)NS(=O)(=O)c4ccc(NCC5CCOCC5)c([N+](=O)[O-])c4)c(Oc4cnc5[nH]ccc5c4)c3)CC2)=C(c2ccc(Cl)cc2)C1,0.959 ± 0.078
4,CCCCCCCCCCC[C@@H](C[C@@H]1OC(=O)[C@H]1CCCCCC)OC(=O)[C@H](CC(C)C)NC=O [Orlistat],0.874 ± 0.047
5,Cc1ccc(NC(=O)c2ccc(CN3CC[C@H](N(C)C)C3)c(C(F)(F)F)c2)cc1Nc1nccc(-c2cncnc2)n1 [Bafetinib (INNO-406)],0.99 ± 0.093
6,COc1cc(Nc2ncc(F)c(Nc3ccc4c(n3)NC(=O)C(C)(C)O4)n2)cc(OC)c1OC [R406 (free base)],0.758 ± 0.13
7,COc1cc(Nc2ncc(F)c(Nc3ccc4c(n3)NC(=O)C(C)(C)O4)n2)cc(OC)c1OC,1.01 ± 0.019
8,CC(C)(Oc1ccc(Cl)cc1)C(=O)O [Clofibric Acid],1.1 ± 0.1
9,O=C(O)CCC(=O)Nc1ccc(Br)cn1 [Bikinin],1.06 ± 0.076
10,COc1ccc(C(=O)Nc2sc3c(c2C(N)=O)CCCC3)cc1OC,0.979 ± 0.1
11,O=NO [Sodium Nitrite],1.14 ± 0.13
12,CCC[C@H](Nc1nc(-c2ccc(NC(=O)NCC)c(OC)c2)ncc1C)c1cccnc1 [CYT997 (Lexibulin)],0.673 ± 0.047
13,COC1C(O)CC(=O)OC(C)CC=CC=CC(OC2CCC(N(C)C)C(C)O2)C(C)CC(CC=O)C1OC1OC(C)C(OC2CC(C)(O)C(O)C(C)O2)C(N(C)C)C1O (stereo not drawn) [Spiramycin],1.11 ± 0.0071
14,COc1cc2ncc(-c3ccccc3)nc2cc1OC [Tyrphostin AG 1296],0.947 ± 0.14
15,CC1CCc2c(N3CCC(O)CC3)c(F)cc3c(=O)c(C(=O)O)cn1c23 (stereo not drawn) [Nadifloxacin],1.28 ± 0.3
16,Cn1ncc(Cl)c1-c1cc(C(=O)N[C@H](CN)Cc2cccc(F)c2)sc1Cl,0.76 ± 0.064
17,NC12CC3CC(CC(C3)C1)C2 [Amantadine HCl],1.05 ± 0.029
18,O=c1c2ccccc2oc2ccccc12 [Xanthone],1.1 ± 0.18
19,CC(C)(C)C[C@@H]1N[C@@H](C(=O)N[C@H]2CC[C@H](O)CC2)[C@H](c2cccc(Cl)c2F)[C@]12C(=O)Nc1cc(Cl)ccc12,0.914 ± 0.06
20,CO[C@H]1O[C@@H]2O[C@@]3(C)CC[C@H]4[C@H](C)CC[C@@H]([C@H]1C)[C@@]24OO3 [Artemether],1.045 ± 0.0017
21,Cc1cc(=O)n(-c2ccccc2)n1C [Antipyrine],1.01 ± 0.13
22,Clc1ccc(COC(Cn2ccnc2)c2ccc(Cl)cc2Cl)c(Cl)c1 (stereo not drawn) [Miconazole Nitrate],0.874 ± 0.038
23,Clc1ccc(COC(Cn2ccnc2)c2ccc(Cl)cc2Cl)c(Cl)c1 (stereo not drawn) [Miconazole],0.811 ± 0.03
24,CCCN(CCc1cccs1)[C@H]1CCc2c(O)cccc2C1 [Rotigotine],1.05 ± 0.082
25,CCN(CCO)CCCOc1ccc2c(Nc3cc(CC(=O)Nc4cccc(F)c4)[nH]n3)ncnc2c1 [Barasertib (AZD1152-HQPA)],1.25 ± 0.26
26,C=CC(=O)N1CCC(Oc2cc3c(Nc4ccc(Cl)c(Cl)c4F)ncnc3cc2OC)CC1 [Poziotinib (HM781-36B)],1.246 ± 0.0016

row,SMILES,relative cell viability
1,CN1CCN(C2=Nc3cc(Cl)ccc3Nc3ccccc32)CC1 [Clozapine],1.06 ± 0.055
2,CO[C@@H](C(=O)N1Cc2[nH]nc(NC(=O)c3ccc(N4CCN(C)CC4)cc3)c2C1)c1ccccc1,0.986 ± 0.056
3,Cc1c(Cc2ccc3ccccc3n2)c2cc(F)ccc2n1CC(=O)O,1.14 ± 0.16
4,C[C@@H]1[C@H](O)[C@@H](C)/C=C/C=C/C=C/C=C/C=C/C=C/C=C/[C@H](O[C@@H]2O[C@H](C)[C@@H](O)[C@H](N)[C@@H]2O)C[C@@H]2O[C@](O)(C[C@@H](O)C[C@@H](O)[C@H](O)CC[C@@H](O)C[C@@H](O)CC(=O)O[C@H]1C)C[C@H](O)[C@H]2C(=O)O [Amphotericin B],1.13 ± 0.11
5,CC(C)N(CCCNC(=O)Nc1ccc(C(C)(C)C)cc1)C[C@H]1O[C@@H](n2ccc3c(N)ncnc32)[C@H](O)[C@@H]1O,1.02 ± 0.1
6,CCS(=O)(=O)Nc1ccc2[nH]c(O)c(C(=Nc3ccc(CN4CCCCC4)cc3)c3ccccc3)c2c1 [Hesperadin],0.5395 ± 0.0028
7,C[C@]12CC[C@@H]3c4ccc(O)cc4CC[C@H]3[C@@H]1CC[C@@H]2OC(=O)CCC1CCCC1 [Estradiol Cypionate],0.938 ± 0.085
8,Cc1cc(Nc2ccc(NC(=O)c3ccc(Nc4ccnc5ccccc45)cc3)cc2)nc(N)n1,0.698 ± 0.00091
9,CNC(CC(=O)O)C(=O)O [NMDA (N-Methyl-D-aspartic acid)],1.06 ± 0.04
10,Nc1ncn([C@H]2C[C@H](O)[C@@H](CO)O2)c(=O)n1 [Decitabine],1.44 ± 0.075
11,O=C(Cc1ccc(-c2ccc(OCCN3CCOCC3)cc2)cn1)NCc1ccccc1,0.827 ± 0.037
12,O=C(NOCCO)c1ccc2cncn2c1Nc1ccc(I)cc1F,0.895 ± 0.033
13,CCOc1cc(C(=O)N2CCC(N3CCN(C)CC3)CC2)ccc1Nc1ncc2c(n1)N(C1CCCC1)c1ccccc1C(=O)N2C,0.638 ± 0.066
14,O=c1cc(-c2ccc(O)c(O)c2)oc2cc(O)cc(O)c12 [Luteolin],0.997 ± 0.025
15,CC(C)/N=c1\cc2n(-c3ccc(Cl)cc3)c3ccccc3nc-2cc1Nc1ccc(Cl)cc1 [Clofazimine],0.758 ± 0.058
16,O=C1Cc2cc(CCN3CCN(c4nsc5ccccc45)CC3)c(Cl)cc2N1 [Ziprasidone HCl],1.542 ± 0.0026
17,COC(=O)CCc1ccc(OCC(O)CNC(C)C)cc1 (stereo not drawn) [Esmolol HCl],1.1 ± 0.094
18,COc1cc(C(=O)NC2CCN(C)CC2)ccc1Nc1ncc2c(n1)N(C1CCCC1)CC(F)(F)C(=O)N2C,0.779 ± 0.0097
19,O=C(NCc1cccc(O)c1)Nc1nc(-c2ccncc2)cs1,1.11 ± 0.063
20,CN1C(C(=O)Nc2ccccn2)=C(O)c2ccccc2S1(=O)=O [Piroxicam],1.02 ± 0.064
21,COc1c(C)c2c(c(O)c1C/C=C(\C)CCC(=O)OCCN1CCOCC1)C(=O)OC2 [Mycophenolate Mofetil],1.01 ± 0.074
22,NCCS [Cysteamine HCl],1.19 ± 0.13
23,COCCOC(=O)C1=C(C)NC(C)=C(C(=O)OC(C)C)C1c1cccc([N+](=O)[O-])c1 (stereo not drawn) [Nimodipine],0.99622 ± 0.00012
24,O=C(O)c1ccc(-n2nc(-c3ccccc3O)nc2-c2ccccc2O)cc1 [Deferasirox],0.87 ± 0.041
25,C[C@H]1COC2(CCN(c3nc(=O)c4cc(C(F)(F)F)cc([N+](=O)[O-])c4s3)CC2)O1 (racemic) [BTZ043 Racemate],1.02 ± 0.019
26,CC1(C)[C@@H](O)CC[C@]2(C)[C@H]3C(=O)C=C4[C@@H]5C[C@@](C)(C(=O)O)CC[C@]5(C)CC[C@@]4(C)[C@]3(C)CC[C@@H]12 [Enoxolone],1.12 ± 0.037

row,SMILES,relative cell viability
1,CC1(C)CC(=O)c2c(C(F)(F)F)nn(-c3ccc(C(N)=O)c(N[C@H]4CC[C@H](OC(=O)CN)CC4)c3)c2C1,0.804 ± 0.018
2,COc1cc2c(cc1OC)[C@@H]1Cc3ccc(OC)c(OC)c3CN1CC2 [Rotundine],1.13 ± 0.047
3,CN1CCN(Cc2ccc(NC(=O)Nc3ccc(Oc4cc(NC(=O)C5CC5)ncn4)cc3)cc2C(F)(F)F)CC1,0.7858 ± 0.0025
4,O=C(CCCN1CCC(O)(c2ccc(Cl)cc2)CC1)c1ccc(F)cc1 [Haloperidol],1.08 ± 0.08
5,Cc1ccc(C)c(OCCCC(C)(C)C(=O)O)c1 [Gemfibrozil],1.04 ± 0.059
6,O=C(O)C[C@H](O)C[C@H](O)/C=C/c1c(C2CC2)nc2ccccc2c1-c1ccc(F)cc1 [Pitavastatin Calcium],0.8 ± 0.035
7,Cc1ccc(Sc2ccccc2N2CCNCC2)c(C)c1,0.934 ± 0.039
8,CN1CCC(CNc2ccc3ncc(-c4cccc(OC(F)(F)F)c4)n3n2)CC1 [SGI-1776 free base],0.9705 ± 0.006
9,NCC(=O)CCC(=O)O [5-Aminolevulinic acid HCl],0.962 ± 0.0066
10,C[C@H](NC(=O)CCc1nc2ccccc2c(=O)[nH]1)c1ccccc1,1.11 ± 0.14
11,CC(C[N+](C)(C)C)OC(N)=O (stereo not drawn) [Bethanechol chloride],1.06 ± 0.21
12,COc1ccc(C[C@H](NC(=O)[C@H](C)NC(=O)CN2CCOCC2)C(=O)N[C@@H](Cc2ccccc2)C(=O)[C@@]2(C)CO2)cc1,0.198 ± 0.0095
13,Cc1ccc2nc(NCCN)c3ncc(C)n3c2c1,1.02 ± 0.043
14,Cc1c(NC(=O)OC[C@@H]2COCCN2)cn2ncnc(Nc3ccc4c(cnn4Cc4cccc(F)c4)c3)c12,1.17 ± 0.1
15,CC(=O)c1cc([N+](=O)[O-])c(Sc2ccc(F)cc2F)s1,0.566 ± 0.046
16,COc1ccc([C@@H]2Sc3ccccc3N(CCN(C)C)C(=O)[C@@H]2OC(C)=O)cc1 [Diltiazem HCl],1.13 ± 0.044
17,Cc1cn([C@H]2C[C@H](N=[N+]=[N-])[C@@H](CO)O2)c(=O)[nH]c1=O [Zidovudine],1.12 ± 0.085
18,C=CCc1ccc(O)c(-c2cc(CC=C)ccc2O)c1 [Magnolol],1.02 ± 0.057
19,NS(=O)(=O)Cc1noc2ccccc12 [Zonisamide],1.24 ± 0.04
20,Cc1cnc(-c2cnc(NCCNc3ccc(C#N)cn3)nc2-c2ccc(Cl)cc2Cl)[nH]1,1.12 and 1.36
21,CCCNC(C)C(=O)Nc1c(C)csc1C(=O)OC (stereo not drawn) [Articaine HCl],1.13 ± 0.016
22,CNCc1ccc(-c2[nH]c3cc(F)cc4c3c2CCNC4=O)cc1,1.3 ± 0.098
23,"CC(=O)C1=C(O)C=C2Oc3c(C(C)=O)c(O)c(C)c(O)c3C2(C)C1=O (single isomer, unassigned; (+)) [(+)-Usniacin]",1.11 ± 0.018
24,CCNC(=O)c1noc(-c2cc(C(C)C)c(O)cc2O)c1-c1ccc(CN2CCOCC2)cc1,0.626 ± 0.052
25,O=C(O)c1cc2cccc([N+](=O)[O-])c2[nH]1,1.07 ± 0.012
26,COc1ccc(CCc2nc3cc(-c4c(C)noc4C)ccc3n2C[C@H](C)N2CCOCC2)cc1Cl,0.842 ± 0.032
